{"source": "PubChem BioAssay AID485344", "about": "(National Center for Advancing Translational Sciences (NCATS), 2010)", "note": "Hit rate of the full screen: of about 340,000 compounds, about 6,900 (2%) were called active. No stated cut-off is given here; in the data, active means inhibition above about 30%; inactive means below that, where a call was filed. Only a part is listed here, and it is no random draw. Where no call is shown, the source filed none."}
{"biological_target": "D(2) dopamine receptor (Homo sapiens) (UniProt P14416)", "sequence (P14416 whole entry, looked up)": "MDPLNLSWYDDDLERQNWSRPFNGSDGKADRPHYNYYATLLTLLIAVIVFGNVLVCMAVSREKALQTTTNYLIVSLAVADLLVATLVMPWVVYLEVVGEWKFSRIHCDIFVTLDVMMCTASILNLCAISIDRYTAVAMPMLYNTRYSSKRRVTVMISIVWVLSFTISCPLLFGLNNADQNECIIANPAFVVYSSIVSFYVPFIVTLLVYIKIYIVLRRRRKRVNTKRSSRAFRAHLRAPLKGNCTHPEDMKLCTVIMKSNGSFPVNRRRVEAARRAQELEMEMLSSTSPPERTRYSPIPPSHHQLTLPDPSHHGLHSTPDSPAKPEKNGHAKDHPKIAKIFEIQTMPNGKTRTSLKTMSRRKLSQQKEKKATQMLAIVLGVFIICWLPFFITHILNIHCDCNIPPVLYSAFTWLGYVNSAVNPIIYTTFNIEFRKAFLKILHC", "test": "HTS Assay for Allosteric Antagonists of the Human D2 Dopamine Receptor: Primary Screen for Antagonists; further: 0% is about no effect", "conditions": "HEK293 TREx D2 cells, calcium flux, dopamine EC80; at 10 µM; stronger effect = higher value", "outline": "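Calcium flux kinetic readout in an inducible HEK293 TREx D2 line plated overnight at 30 C. After 180 s compound exposure, an EC80 dopamine challenge follows with another 180 s kinetic read to detect antagonism.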"}
{"smiles": "CC(C)CC(=O)Nc1c(C(=O)N2CCN(c3ccccc3F)CC2)oc2ccccc12", "inhibition": "-20.8%"}
{"smiles": "Cc1cc(C)c2c(-n3cccc3)c(C(=O)NCCc3ccccc3)sc2n1", "inhibition": "6.48%"}
{"smiles": "CCN(CC)c1ccc(C(=O)NCc2ccc3c(c2)CCN3C(C)=O)cc1", "inhibition": "9.96%"}
{"smiles": "CC(=O)c1ccc(N2CCN(C(=O)Nc3cccc(F)c3)CC2)cc1", "inhibition": "0.635%"}
{"smiles": "COC(=O)C1=C(c2ccccc2)c2ccccc2S(=O)(=O)N1CC(=O)Nc1ccccc1C(F)(F)F", "inhibition": "-20.8%"}
{"smiles": "CCCCC(=O)Nc1ccc(C(=O)OCc2cc(=O)n3nc(C4CC4)sc3n2)cc1", "inhibition": "10.1%"}
{"smiles": "COc1ccc(S(=O)(=O)Cc2ccc(C(=O)NC3CCCCC3)o2)cc1", "inhibition": "3.15%"}
{"smiles": "C=CCN1CCc2nc(N)sc2CC1", "inhibition": "active: 89.2%"}
{"smiles": "Cc1cccc(N2CCN(c3ccc(C(=O)O)cc3NC(=O)c3ccccc3F)CC2C)c1", "note": "(centres undefined)", "inhibition": "-5.57%"}
{"smiles": "Cc1cc(Cl)ccc1NC(=O)CN1C(=O)C(=O)c2ccccc21", "inhibition": "-0.778%"}
{"smiles": "CCOC(=O)C1CCN(Cc2cccc(OC)c2)CC1", "inhibition": "active: 43.6%"}
{"smiles": "CSc1cccc(NC(=O)Cn2nnc(C(=O)NCCc3ccccc3)c2N)c1", "inhibition": "0.665%"}
{"smiles": "CCN1CCN(C(c2ccccc2)c2c(O)cc(C)n(CCOC)c2=O)CC1", "note": "(centres undefined)", "inhibition": "-18.4%"}
{"smiles": "COc1ccc(-n2nc(C(N)=O)c(O)cc2=O)cc1", "inhibition": "active: 32.1%"}
{"smiles": "O=C(Nc1nonc1-c1ccc(Br)cc1)c1ccco1", "inhibition": "-13.5%"}
{"smiles": "Cc1nc2ccccc2n1CCc1nc2c3ccccc3nc(SCC(=O)Nc3ccc(C(C)C)cc3)n2n1", "inhibition": "-0.567%"}
{"smiles": "COc1cccc(Cn2cc(S(=O)(=O)c3ccc(C)cc3)c(=O)c3cc4c(cc32)OCO4)c1", "inhibition": "-17%"}
{"smiles": "Cc1ccc(NC(=O)CSc2[nH]c(=O)ncc2C)cc1", "inhibition": "15.8%"}
{"smiles": "Clc1ccc(CSc2nc3ncccc3[nH]2)cc1", "inhibition": "1.87%"}
{"smiles": "CCCc1ccc(NC(=O)C2CCN(c3cnccn3)CC2)cc1", "inhibition": "-4.5%"}
{"smiles": "Cc1ccc(NC(=O)Cc2ccc(NC(=O)N3CCCCc4ccccc43)cc2)cc1", "inhibition": "10.7%"}
{"smiles": "CCN1CCN(CCCNC(=O)Cn2nc(C)n3c(cc4cc(C)ccc43)c2=O)CC1", "inhibition": "-7.51%"}
{"smiles": "COc1ccccc1N1CCN(C2CCN(C3CCC(c4ccccc4)CC3)CC2)CC1", "note": "(centres undefined)", "inhibition": "active: 45.1%"}
{"smiles": "COc1ccc(OC)c(CNC(=O)C2COc3ccccc3C2)c1", "note": "(centres undefined)", "inhibition": "4.06%"}
{"smiles": "COc1ccc2nc(N3CCN(C(=O)c4ccco4)CC3)sc2c1", "inhibition": "-18.6%"}
{"smiles": "CCc1ccc(S(=O)(=O)c2nnn3c2nc(N2CCCC(C)C2)c2cc(Cl)ccc23)cc1", "note": "(centres undefined)", "inhibition": "-0.647%"}
{"smiles": "CCOC(=O)Cc1ccc(NC(=O)N2CC(CC)Oc3ccccc32)cc1", "note": "(centres undefined)", "inhibition": "-18.3%"}
{"smiles": "Cc1ccc(-c2nc3c4ccccc4n(Cc4cccc(Cl)c4)c(=O)n3n2)cc1", "inhibition": "11.9%"}
{"smiles": "COc1ccc(N2CCN(C(=O)CCn3cnc4onc(-c5ccc(F)cc5)c4c3=O)CC2)cc1", "inhibition": "8.98%"}
